According to patent US20240293367A1, “METHODS OF TREATING DISORDERS WITH A […]” (Cybin IRL Limited, priority 2023, published 2024):

Assay: Safety and tolerability (adverse events) in the Phase I/IIa study
Settings: all cohorts

Which “severity of adverse events / serious adverse events” value does the source give for `[2H]C([2H])([2H])N(C([2H])([2H])[2H])C([2H])([2H])C([2H])([2H])c1c[nH]c2cccc(O)c12` [psilocin-d10, 3-(2-(bis(methyl-d3)amino)ethyl-1,1,2,2-d4)-1H-indol-4-ol] here?
Its value is “mild or moderate in severity, with no serious adverse events”.
